The campaign covered roughly 52,000 compounds. About 4,300 (8.3%) were called active. Cut-off read from the data, not from the text of the source: active = survival mostly below about 52% (no sharp cut-off); inactive = mostly above about 56%. The list shows a part of the results.

The subject of this test is DeltatarO mutant. The experiment in a line: S. aureus survival, RN4220 and DeltatarO strains – OD600, teichoic acid synthesis inhibitors, primary screen (AID 463173). The note with it: S. aureus RN4220 wild type/DeltatarO growth, OD600, 18 h, stronger effect = lower value, screened at 18.75 µg/mL (by protocol).
Consider `Cc1ccc(S(=O)(=O)N(C)Cc2nc(-c3ccccc3)oc2C)cc1`, for which the survival was inactive: 71%.

Turning to `CN(C)CCNC(=O)C(=O)NCC(c1cccnc1)N1CCN(c2ccc(F)cc2)CC1` (stereo unspecified), the survival was inactive: 69%.

As for `CCOc1ccccc1NC(=O)Cn1nnc(C(=O)NCc2ccc(F)cc2)c1N`, the survival is inactive: 93%.

As for `COc1ccc(Cn2ccc3nc(C)c(C(=O)N4CCN(c5ccc(OC)cc5)CC4)cc3c2=O)cc1`, the survival is inactive: 124%.

With `CCc1nc2nc(C)c(NS(=O)(=O)c3ccc(C)cc3)c(=O)n2[nH]1`, the survival is inactive: 89%.

For `COc1cccc(N2CCN(C(=O)CCCCCn3c(=O)[nH]c4ccccc4c3=O)CC2)c1`, the survival is inactive: 67%.

Take `CC1CCn2c(nc3cc(C(=O)NCc4ccc(OC(C)C)cc4)ccc32)C1` (stereo unspecified): the survival was inactive: 82%.

Take `CCc1ccc(CNC(=O)c2cc3c(=O)n(Cc4cccs4)ccc3nc2C)cc1`: the survival is active: 32%.

For the compound `CCC(C(=O)NC1CCC(C)CC1)n1nc(C)c2sc3ccccc3c2c1=O` (stereo unspecified), the survival was inactive: 89%.

As for `CC(C)c1ccc(NC(=O)CSc2nc3ccccc3nc2Cc2ccccc2)cc1`, the survival was inactive: 66%.

Take `COc1ccccc1CNC(=O)C1CCN(S(=O)(=O)c2ccc3c(c2)CCCN3C(C)=O)CC1`: the survival is inactive: 83%.

Turning to `Cc1cc(N2C(=O)CCC2=O)n(-c2ccccc2)n1`, the survival was inactive: 89%.

`CCOc1ccc(-n2c(=O)c3c4c(sc3n(CC(=O)NC(C)CC)c2=O)CCCC4)cc1` (stereo unspecified): the survival is inactive: 85%.

Consider `CC(=O)c1cccc(NC(=O)C2CCN(S(=O)(=O)c3ccc4[nH]c(=O)ccc4c3)CC2)c1`, for which the survival was inactive: 94%.

Consider `Cc1ccc(CNC(=O)C2CCN(Cc3nc(-c4cccc(Br)c4)oc3C)CC2)cc1`, for which the survival was inactive: 101%.

Regarding `Cc1ccc(-n2nc3ccc(NC(=O)COc4ccccc4)cc3n2)cc1Cl`, the survival is inactive: 77%.

Consider `Cc1cccc(-n2c(=O)c3ccccc3n(Cc3ccccc3)c2=O)c1`, for which the survival is inactive: 80%.

Take `O=C(CSc1nc2c([nH]c3ccccc32)c(=O)n1-c1cccc(C(F)(F)F)c1)N1CCc2ccccc21`: the survival was inactive: 78%.

Consider `CCc1cc2c(cc(C(=O)OC)n2Cc2nc(-c3ccc(C)cc3)oc2C)s1`, for which the survival is active: 26%.

With `Cc1cc(C(=O)OC(C)C)ccc1-c1ccc(C=C(C#N)C#N)o1`, the survival is inactive: 104%.

As to `COc1ccc(-c2c(C)nn3c(C(F)(F)F)cc(-c4ccccc4)nc23)cc1`, the survival was inactive: 62%.

As for `COc1ccc(OC)c(NC(=O)c2cc(C3CC3)nc3c2c(C)nn3-c2ccc(C)cc2)c1`, the survival is inactive: 64%.

For the compound `Cc1cc(C)cc(NC(=O)Cc2c(C(=O)O)c(C)cn2C)c1`, the survival was inactive: 60%.

On to `O=C(Cn1cc(SCc2ccccc2F)c2ccccc21)N1CCCCC1`, for which the survival was inactive: 82%.

Consider `O=C(NCc1ccco1)c1ccc2c(c1)N(Cc1c(F)cccc1Cl)C(=O)c1ccccc1S2`, for which the survival was inactive: 78%.

Consider `CCOC(=O)Cc1nnc2c3ccccc3n(C)c2n1`, for which the survival is inactive: 96%.

`CC1CCCN(Cc2nc3c(c(=O)n(C)c(=O)n3C)n2Cc2ccc(Cl)cc2)C1` (stereo unspecified): the survival is inactive: 90%.

Consider `O=C(Nc1cc(Cl)ccc1Cl)c1cc2nc(-c3ccc4c(c3)OCO4)cc(C(F)(F)F)n2n1`, for which the survival was inactive: 76%.

On to `CSc1ccc(CNC(=O)C2CCN(c3nc4ccccc4nc3C(F)(F)F)CC2)cc1`, for which the survival is inactive: 107%.

Turning to `Cn1nc(C(=O)NCc2ccccc2Cl)c2c1-c1ccccc1S(=O)(=O)C2`, the survival is inactive: 100%.

For the compound `Cc1cc(C)cc(NC(=O)CSc2oc(-c3ccco3)nc2S(=O)(=O)c2ccc(Cl)cc2)c1`, the survival was inactive: 59%.

Regarding `COc1ccc(/C=C2\SC(=S)N(CCC(=O)NCCO)C2=O)cc1`, the survival is inactive: 104%.

On to `CCc1ccc(C(=O)N2CCC(c3nc(-c4ccc(S(=O)(=O)N5CCCC5)cc4)no3)CC2)cc1`, for which the survival was inactive: 89%.

On to `O=S(=O)(c1ccc(Br)cc1)c1nnn2c1nc(NCc1ccc3c(c1)OCO3)c1sccc12`, for which the survival was inactive: 81%.

For `COc1cc(Cl)c(C)cc1NC(=O)Cn1ncc2c1-c1cc(C)ccc1OC2`, the survival was inactive: 58%.

As to `CCCSc1ncc(Cl)c(C(=O)Nc2c(C(=O)Nc3ccc(OC)cc3)oc3ccccc23)n1`, the survival is inactive: 68%.

In the case of `CCCOc1ccc(CNC(=O)CCCn2nc(C)c3sc4ccccc4c3c2=O)cc1`, the survival was inactive: 101%.

With `Cc1ccc(CNC(=O)CCCCCn2c(=O)c3sccc3n(CC(=O)Nc3c(C)cc(C)cc3C)c2=O)cc1`, the survival was inactive: 77%.

For the compound `COC(=O)/C=C1/N/C(=N/c2nc3cc(C)ccc3o2)NC1=O`, the survival was inactive: 57%.

Consider `CCc1ccccc1NC(=O)Cc1ccc(NC(=O)N2CCCCc3ccccc32)cc1`, for which the survival was inactive: 94%.

In the case of `Cc1nc2nc(NC(=O)CC(C)C)[nH]n2c(=O)c1Cc1ccccc1`, the survival was inactive: 113%.

Regarding `COc1ccc(C)cc1NC(=O)c1cc2c(=O)n(Cc3cccnc3)ccc2nc1C`, the survival is inactive: 107%.

Take `Cc1ccc(-c2c(C(=O)N3CCN(c4cc(Cl)ccc4C)CC3)oc(=O)c3ccccc23)cc1`: the survival was inactive: 94%.

Consider `CCS(=O)(=O)c1ncc(Cl)c(C(=O)Nc2c(C(=O)Nc3cccc(C)c3)oc3ccccc23)n1`, for which the survival was inactive: 67%.

In the case of `COc1ccccc1N1CCN(C(CNC(=O)C(=O)NCc2ccc(F)cc2)c2cccnc2)CC1` (stereo unspecified), the survival is inactive: 104%.

In the case of `O=C(Nc1ccc(F)c(Cl)c1)N1CCC2(CC1)Oc1ccccc1C(=O)N2Cc1ccccc1F`, the survival is inactive: 55%.

As to `Nc1ccc(C(=O)N(CCO)CCO)cc1`, the survival is inactive: 54%.

In the case of `Cc1ccc(-n2c(SCC(=O)NC(C)(C)C)nc(O)cc2=O)cc1`, the survival was inactive: 107%.

With `Cc1cc(C)c(S(=O)(=O)N2CCC(N3CCN(Cc4ccccc4)C(=O)C3=O)CC2)c(C)c1`, the survival was inactive: 68%.

Consider `CCN(CC)S(=O)(=O)c1cccc(C(=O)Nc2sc3c(c2C#N)CCC(C)C3)c1` (stereo unspecified), for which the survival is inactive: 121%.

Turning to `COc1ccc2c(c1)c1c(c(=O)n(-c3ccccc3C)c(=O)n1C)n2C`, the survival was inactive: 81%.

As for `COc1ccc(Cc2nnc(NC(=O)c3cccs3)s2)cc1OC`, the survival was inactive: 100%.

Take `COc1ccc(Nc2cc(C)c3cc(NC(=O)Cc4ccc(Cl)cc4)ccc3n2)cc1`: the survival was inactive: 103%.

In the case of `Cc1ccc(Cl)cc1N1CCN(c2ncnc3c2nc2n3CCCCC2)CC1`, the survival is inactive: 96%.

For `COc1ccc(-n2ncc(C(=O)N3CCN(c4cc(C)ccc4C)CC3)c2C2CCN(C(=O)OC(C)(C)C)CC2)cc1`, the survival is inactive: 80%.

As for `COc1ccc(CNCc2c(C(=O)O)c(C)n(Cc3ccccc3C)c2C)c(OC)c1`, the survival is inactive: 122%.

`CCN(CC)CCNC(=O)c1cn(CCOC)c(=O)c2c1c1ccccc1n2C`: the survival was inactive: 82%.

In the case of `O=C(CSc1cn(CCNC(=O)c2c(F)cccc2F)c2ccccc12)Nc1ccc(F)cc1`, the survival is inactive: 128%.

As to `Cc1nnc(NC(=O)CSc2nccn2Cc2ccc(Cl)cc2)s1`, the survival is inactive: 112%.

As for `COc1ccc(Cc2nc3c4cnn(-c5ccccc5F)c4ncn3n2)cc1`, the survival is inactive: 81%.

With `COc1ccc(Cl)cc1N(C)C(=O)c1cc2c(=O)oc3ccc(C)cc3c2s1`, the survival is inactive: 68%.

As for `O=C(/C=C/c1ccccc1)NC(O)C(=O)c1ccccc1` (stereo unspecified), the survival was inactive: 83%.

Take `CCCCNC(=O)c1cc(-c2ccc(OC)cc2)nc2n[nH]c(-c3cccc([N+](=O)[O-])c3)c12`: the survival is inactive: 67%.

`CCc1ccccc1NC(=O)CN1CCCN(Cc2cc(C)ccc2C)S1(=O)=O`: the survival is inactive: 94%.

As for `CCc1ccc(NC(=O)CCNS(=O)(=O)c2ccc3c(c2)oc(=O)n3C)cc1`, the survival was inactive: 89%.

`Cc1ccc(C)c(NC(=O)Cn2cc(C(=O)c3cccs3)c3ccccc32)c1`: the survival is inactive: 121%.

In the case of `CC(C)Oc1ccc(C(=O)NCC(c2ccc(N(C)C)cc2)N2CCCC2)cc1` (stereo unspecified), the survival is inactive: 60%.

Regarding `CCOc1ccccc1NC(=O)CCNS(=O)(=O)c1cccc2nonc12`, the survival was active: 45%.

Turning to `CCOc1ccccc1NC(=O)C1CCCN1S(=O)(=O)c1ccc2c(c1)C(C)(C)C(=O)N2C` (stereo unspecified), the survival was inactive: 50%.

On to `COc1cc(C(=O)Nc2ccc3c(c2)N(C2CCCC2)C(=O)c2ccccc2S3)cc(OC)c1OC`, for which the survival was inactive: 72%.

Regarding `COc1ccc(NC(=O)N2CCOc3ccc(Cl)cc32)cc1`, the survival was active: 44%.

For the compound `Nc1c(C(=O)Nc2ccccc2F)sc2nc3c(cc12)CCCCCC3`, the survival was inactive: 61%.

On to `Cc1ccc(NS(=O)(=O)c2cc(-c3cnc(C4CC4)o3)ccc2C)cc1Cl`, for which the survival is inactive: 129%.

`Cc1cc(NC(=O)c2ccc3c(c2)OCCO3)cc(-c2nc3ccccc3o2)c1O`: the survival is inactive: 63%.

`CCC(C(=O)NCc1ccc(OC)c(OC)c1)n1nc(C)c2c(C)n(-c3ccc(C)cc3)nc2c1=O` (stereo unspecified): the survival is inactive: 78%.

`Cc1ccc(C(=O)COC(=O)c2cccc(NC(=O)c3ccc(Cl)cc3Cl)c2)cc1`: the survival was inactive: 61%.

Consider `Cc1ccc(NC(=O)C2CCN(S(=O)(=O)c3c(C)noc3/C=C/c3cccs3)CC2)cc1F`, for which the survival is inactive: 64%.

Turning to `COc1ccc(NC(=O)CCc2nc3c(C)nn(-c4ccc(C)cc4)c3n(C)c2=O)cc1`, the survival was inactive: 82%.

For `Cc1cccc(N(CC(=O)NCCSCc2cccc(Cl)c2)S(=O)(=O)c2ccccc2)c1C`, the survival is inactive: 57%.

As for `CCCS(=O)(=O)c1c(S(=O)(=O)CCC)c2cc(CC)ccn2c1C(=O)c1ccc(Cl)cc1`, the survival is inactive: 75%.

Consider `O=C(CN1C(=O)COc2ccccc21)N(Cc1ccccc1)Cc1ccccn1`, for which the survival was inactive: 91%.

`COc1ccc(C2NC(=O)N(C)C3=C2C(=O)N(c2cccc(C(=O)O)c2)C3)cc1` (stereo unspecified): the survival is inactive: 84%.

Take `COc1ccc(Cl)cc1CNCCSc1nnnn1-c1ccccc1`: the survival was inactive: 50%.

Take `CCN(CC)CCCNC(=O)c1nn(C)c2c1CSc1ccccc1-2`: the survival was inactive: 87%.

Consider `COc1ccccc1-c1cc(C(=O)Nc2cc(OC)c(OC)c(OC)c2)no1`, for which the survival is active: 25%.

Turning to `Cc1ccc(C)c(-n2c(SCC(=O)NCC(C)C)nnc2-c2cccnc2)c1`, the survival is inactive: 107%.
